Test results as given in the supplement of paper PMC4894684.
Counter-ions that a name gives are not always drawn. ± gives the standard deviation of the averaged measurements. Among all 1,000 compounds or so, about 15 (2%) showed an effect of 50% or more. Some of the results follow.

Test system: HFF
Test: uninfected host cell viability relative to vehicle control; higher = less host cell toxicity
Conditions: 5 µM; 72 h; oxygen 21 %
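Note: confluent HFF monolayers, run in parallel with the Toxoplasma growth screen as a host toxicity counterscreen.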

**Q.** Which “uninfected host cell viability” value does the source give for `COC(=O)[C@@H]1CC2=CC(=O)CC[C@]2(C)[C@@]23O[C@@H]2C[C@@]2(C)[C@@H](CC[C@@]24CCC(=O)O4)[C@H]13` [Eplerenone] here?
**A.** 88.14 ± 0.81%

**Q.** Which “uninfected host cell viability” value does the source give for `CC(C)(C)[N+]([O-])=Cc1ccc(S(=O)(=O)O)cc1S(=O)(=O)O` here?
**A.** 98.3 ± 1.5%

**Q.** `CCS(=O)(=O)N1CCC[C@@H]2CN3CCc4cc(OC)ccc4[C@@H]3C[C@@H]21` was tested. Which “uninfected host cell viability” value did it give?
**A.** 85.4 ± 2.9%

**Q.** With `CC(CCCCC(=O)Nc1ccc(C(F)(F)F)cc1)NCCc1cnc[nH]1` (stereo not drawn) [HTMT dimaleate] as the molecule, how does the “uninfected host cell viability” value read?
**A.** 91.1 ± 3.1%

**Q.** For `OCCN(CCO)c1nc(N2CCCCC2)c2nc(N(CCO)CCO)nc(N3CCCCC3)c2n1` [Dipyridamole], which “uninfected host cell viability” value is on record?
**A.** 94.4 ± 1.1%

**Q.** For `CCCN(C/C=C/I)C1CCc2cccc(O)c2C1` (stereo not drawn) [8-Hydroxy-PIPAT oxalate], which “uninfected host cell viability” value is on record?
**A.** 87.24 ± 0.84%

**Q.** With `CC(C)[C@H](CO)Nc1nc(Nc2ccc(C(=O)O)c(Cl)c2)c2ncn(C(C)C)c2n1` [Purvalanol B] as the molecule, how does the “uninfected host cell viability” value read?
**A.** 87.6 ± 2.2%

**Q.** Which “uninfected host cell viability” value does the source give for `COc1cc(COc2cc(N)c(Cl)cc2C(=O)CCC2CCN(CCNS(C)(=O)=O)CC2)cc(OC)c1` here?
**A.** 85.1 ± 2.7%

**Q.** With `Cc1cc(C)c(S(=O)(=O)Nc2ccccc2C(F)(F)F)c(C)c1` as the molecule, how does the “uninfected host cell viability” value read?
**A.** 84.68 ± 0.53%

**Q.** For `Cc1ccc(=O)n(-c2ccccc2)c1` [Pirfenidone], which “uninfected host cell viability” value is on record?
**A.** 85.4 ± 4.4%

**Q.** `CCC(=O)NC1Cc2ccccc2C(c2ccccc2)C1` (stereo not drawn) was tested. Which “uninfected host cell viability” value did it give?
**A.** 99.58 ± 0.97%

**Q.** Which “uninfected host cell viability” value does the source give for `Cl/C(=C\n1cncn1)c1ccc(Cl)cc1Cl` [Loreclezole hydrochloride] here?
**A.** 85.3 ± 1.3%

**Q.** For `CC1(C(=O)O)NCCc2cc(O)c(O)cc21` (stereo not drawn) [Salsolinol-1-carboxylic acid], which “uninfected host cell viability” value is on record?
**A.** 78.4 ± 4%

**Q.** `C[C@@H](CN1CCC(Cc2ccccc2)CC1)[C@@H](O)c1ccc(O)cc1` [Ro 25-6981 maleate] was tested. Which “uninfected host cell viability” value did it give?
**A.** 87.48 ± 0.33%

**Q.** `N#Cc1cc2nc(O)c(O)nc2cc1[N+](=O)[O-]` [CNQX disodium salt] was tested. Which “uninfected host cell viability” value did it give?
**A.** 88.5 ± 3.2%

**Q.** `COC(=O)[C@H](NC(=O)c1cc(-c2ccccc2)nc2ccccc12)c1ccccc1` was tested. Which “uninfected host cell viability” value did it give?
**A.** 88.372 ± 0.0059%

**Q.** How did the “uninfected host cell viability” value turn out when `N[C@@H](CS(=O)O)C(=O)O` [L-Cysteinesulfinic acid] was run?
**A.** 96.5 ± 1.4%

**Q.** Which “uninfected host cell viability” value does the source give for `Nc1nc(-c2ccc(Cl)c(Cl)c2)c(-c2ccncc2)s1` [CGH 2466 dihydrochloride] here?
**A.** 87.4 ± 1.5%

**Q.** How did the “uninfected host cell viability” value turn out when `CCCCCCNC(=O)Nc1ccc(S(=O)(=O)Nc2ccc(CCNC[C@H](O)COc3ccc(O)cc3)cc2)cc1` was run?
**A.** 83.4 ± 2.5%

**Q.** How did the “uninfected host cell viability” value turn out when `O=C(Nc1ccncc1)c1cc([N+](=O)[O-])ccc1Cl` was run?
**A.** 99.7 ± 1.5%

**Q.** For `CCn1c(=O)[nH]c2cc(Cl)c(Cl)cc21`, which “uninfected host cell viability” value is on record?
**A.** 91.6 ± 0.94%

**Q.** How did the “uninfected host cell viability” value turn out when `CC[C@@H]1C(=O)OC[C@@H]1Cc1cncn1C` [Pilocarpine hydrochloride] was run?
**A.** 101 ± 2.5%

**Q.** How did the “uninfected host cell viability” value turn out when `CC(=N)NCCCC[C@H](N)C(=O)O` [L-NIL hydrochloride] was run?
**A.** 83.99 ± 0.74%

**Q.** `COC(=O)C1=C(C)NC(C)=C([N+](=O)[O-])[C@H]1c1ccccc1C(F)(F)F` was tested. Which “uninfected host cell viability” value did it give?
**A.** 68.2 ± 1.7%

**Q.** For `O=C(Nc1ccccc1)C12CC1C(=NO)c1ccccc1O2` (stereo not drawn), which “uninfected host cell viability” value is on record?
**A.** 96.71 ± 0.12%

**Q.** Which “uninfected host cell viability” value does the source give for `OC[C@H]1O[C@@H](n2cnc3c(N[C@H]4CCC[C@@H]4O)ncnc32)[C@H](O)[C@@H]1O` here?
**A.** 88.7 ± 6.8%

**Q.** With `COC1(C2=NCCN2)COc2ccccc2O1` (stereo not drawn) as the molecule, how does the “uninfected host cell viability” value read?
**A.** 85.2 ± 2.2%

**Q.** For `COc1ccccc1N1CCN(CCCCNC(=O)c2ccc(-c3ccc(C(C)=O)cc3)cc2)CC1`, which “uninfected host cell viability” value is on record?
**A.** 80.4 ± 1.5%

**Q.** For `CCCCCCCC/C=C\CCCCCCCC(N)=O` [Oleamide], which “uninfected host cell viability” value is on record?
**A.** 100 ± 2%

**Q.** `NC(=O)CCCCn1ccc(NC(N)=NCC(F)(F)F)n1` was tested. Which “uninfected host cell viability” value did it give?
**A.** 85.9 ± 2.3%

**Q.** How did the “uninfected host cell viability” value turn out when `COc1ccc(NS(=O)(=O)c2ccc(I)cc2)cc1N1CCN(C)CC1` was run?
**A.** 81.6 ± 2.9%

**Q.** With `COc1cccc2c1C(=O)c1c(O)c3c(c(O)c1C2=O)C[C@@](O)(C(C)=O)C[C@@H]3O[C@H]1C[C@H](N)[C@H](O)[C@H](C)O1` [Daunorubicin hydrochloride] as the molecule, how does the “uninfected host cell viability” value read?
**A.** 58.7 ± 6.2%

**Q.** With `S=C(S)N1CCCC1` [Pyrrolidinedithiocarbamate ammonium] as the molecule, how does the “uninfected host cell viability” value read?
**A.** 65.8 ± 3.5%

**Q.** Which “uninfected host cell viability” value does the source give for `NS(=O)(=O)c1cc2c(cc1Cl)NC(C1CC3C=CC1C3)NS2(=O)=O` (stereo not drawn) [Cyclothiazide] here?
**A.** 91.88 ± 0.23%

**Q.** How did the “uninfected host cell viability” value turn out when `CCOc1cc(C(=O)Nc2ccc(Cl)c(-c3nc4ccccc4[nH]3)c2)cc(OCC)c1OCC` was run?
**A.** 86.3 ± 2.3%

**Q.** Which “uninfected host cell viability” value does the source give for `CN(C)C(=O)n1nnnc1Cc1ccc(-c2ccccc2)cc1` here?
**A.** 77.37 ± 0.2%

**Q.** With `O=C(O)c1ccc2cc(-c3ccc(O)c(C45CC6CC(CC(C6)C4)C5)c3)ccc2c1` as the molecule, how does the “uninfected host cell viability” value read?
**A.** 81.6 ± 6.6%

**Q.** How did the “uninfected host cell viability” value turn out when `CCC(NC(C)C)C(O)c1ccc(O)c2[nH]c(=O)ccc12` (stereo not drawn) [Procaterol hydrochloride] was run?
**A.** 87.5 ± 1.7%

**Q.** `Oc1ccc(-c2nc(-c3ccc(F)cc3)c(-c3ccncc3)[nH]2)cc1` was tested. Which “uninfected host cell viability” value did it give?
**A.** 91.5 ± 1.5%

**Q.** With `CC(C)C[C@H](NC(=O)N1CCCCCC1)C(=O)N[C@H](Cc1cn(C)c2ccccc12)C(=O)N[C@H](Cc1ccccn1)C(=O)O` as the molecule, how does the “uninfected host cell viability” value read?
**A.** 95.861 ± 0.0014%

**Q.** `CCCCn1c(=O)c2[nH]c(C34CC5CC(CC3C5)C4)nc2n(CCCO)c1=O` was tested. Which “uninfected host cell viability” value did it give?
**A.** 95.1 ± 6.4%

**Q.** `CS(=O)(=O)Nc1c(O)ccc2c1CCCC2C1=NCCN1` (stereo not drawn) was tested. Which “uninfected host cell viability” value did it give?
**A.** 84.9 ± 2.8%

**Q.** With `Nc1cc(N2CCCCC2)nc(N)[n+]1[O-]` [Minoxidil] as the molecule, how does the “uninfected host cell viability” value read?
**A.** 84.51 ± 0.35%
